# Assay results published in the BET-seq Pho4 binding data (Le et al. 2018).
# Some of the results follow. The energies were worked out here from pooled read counts, against the library average; single values are noisy.
# Target: T1, Pho4 (S. cerevisiae) (UniProt P07270)
# T1 sequence: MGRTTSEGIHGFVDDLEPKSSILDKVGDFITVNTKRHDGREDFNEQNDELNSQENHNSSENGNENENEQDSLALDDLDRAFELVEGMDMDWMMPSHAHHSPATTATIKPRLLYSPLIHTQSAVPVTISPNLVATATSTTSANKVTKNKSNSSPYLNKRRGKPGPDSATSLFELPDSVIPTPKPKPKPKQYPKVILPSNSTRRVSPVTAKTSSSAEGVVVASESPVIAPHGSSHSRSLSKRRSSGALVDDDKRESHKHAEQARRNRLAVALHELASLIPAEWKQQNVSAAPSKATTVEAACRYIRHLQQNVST
# Test: relative binding free energy (BET-seq); higher = weaker binding
# Settings: reference: library average
row,Sequence,relative binding free energy [kcal/mol]
1,GGGATCACGTGTTATT,0.18
2,TGTTACACGTGCGGGT,0.03
3,GTCAGCACGTGGTCGG,-0.11
4,AGGTGCACGTGAGGAA,0.06
5,CGGATCACGTGGTGGG,0.13
6,TTGGACACGTGTGCGA,-0.02
7,ATATTCACGTGAGTGG,0.32
8,TTTGCCACGTGACTGG,0.17
9,GGCGACACGTGCGGGG,0
10,TGAGTCACGTGGGATT,0.09
11,ATTTTCACGTGGGTAA,0.24
12,TCGAGCACGTGAGGAG,0.17
13,ATATTCACGTGAGATG,0.36
14,TTGGGCACGTGCGCAG,-0.19
15,ATTTTCACGTGCGGTA,0.24
16,TACTACACGTGTGTTT,0.05
17,TACTTCACGTGATGGA,0.46
18,GTGGACACGTGGTTGG,-0.01
19,TTTTCCACGTGGAGGG,-0.02
20,GGAGTCACGTGTTTAG,0.18
21,CTGTGCACGTGCGATT,0.06
22,TCTGTCACGTGGAAGT,0.09
23,CTAAACACGTGATGGG,0.28
24,TCTTGCACGTGATGGG,0.19
25,GGTCACACGTGCGTGG,-0.07
26,TCGTCCACGTGGTGGT,-0.04

row,Sequence,relative binding free energy [kcal/mol]
1,AAGATCACGTGATGAG,0.32
2,TTATACACGTGGTTTC,-0.07
3,TCTAGCACGTGTAGAG,0.02
4,TTGTGCACGTGTGCAG,-0.04
5,ATTTGCACGTGACATT,0.08
6,AGAGGCACGTGATGTC,0.06
7,GGATGCACGTGACTTT,0.34
8,GGCGGCACGTGACGGT,-0.04
9,AAACGCACGTGTGGTG,-0.08
10,AATGACACGTGTGGTA,0.08
11,GTGAGCACGTGAGCAG,0.31
12,TTAGTCACGTGTCAGC,0.24
13,GGAGTCACGTGTTTCA,0.23
14,GTGGTCACGTGTGGTA,0.2
15,ATTAGCACGTGGGGAC,-0.16
16,AGGGCCACGTGGTGAT,-0.17
17,TGCGACACGTGGGTAT,-0.08
18,CGGGGCACGTGGGCGG,-0.23
19,CGGTACACGTGGAATG,0.19
20,CATTTCACGTGGGGTC,0.05
21,GGAAGCACGTGGTAGT,-0.13
22,TTCAGCACGTGGGCGG,-0.15
23,GGTTACACGTGTTTTG,0.25
24,GTTATCACGTGTTGCG,0.25
25,TACCGCACGTGGTGTT,-0.07
26,GCTGACACGTGGGTGA,0.09

row,Sequence,relative binding free energy [kcal/mol]
1,TGGGACACGTGGAAAG,0.27
2,GCAGACACGTGGTGGG,-0.12
3,TATTTCACGTGTTTGC,0.16
4,TGATTCACGTGGTATA,0.09
5,CAGGGCACGTGGTGGC,-0.19
6,TCCTGCACGTGGTTGT,-0.04
7,AAAGGCACGTGTATAG,0.11
8,CGGGCCACGTGGTGTG,-0.22
9,TGAGCCACGTGGATTT,0.25
10,GTTTACACGTGTTTCG,0.26
11,ATCTGCACGTGGGGCA,-0.05
12,TGTTTCACGTGTCATT,0.19
13,TAAGGCACGTGGAGTG,-0.27
14,GGTGGCACGTGAAAAA,0.31
15,AAGGCCACGTGGATGG,-0.04
16,CATTGCACGTGTAGGC,0.25
17,TCAGACACGTGTGTAT,0.26
18,GTATGCACGTGAGGTG,0.16
19,TATATCACGTGTCATT,0.12
20,AGACTCACGTGGAAGG,0.44
21,CTCGGCACGTGGGTGA,-0.25
22,CTAGTCACGTGTTTGG,-0.06
23,CGGGCCACGTGGGGGG,-0.25
24,GGTATCACGTGTGACG,0.23
25,CGTTGCACGTGAAATG,0.18
26,ATTCTCACGTGAGAGT,0.33

row,Sequence,relative binding free energy [kcal/mol]
1,TCGTACACGTGTGAGT,0.17
2,AAGTTCACGTGTATGA,0.35
3,AGAGGCACGTGTTGTC,-0.12
4,CGTTTCACGTGAGGAT,0.26
5,AGTTGCACGTGAGATG,0.14
6,GATGTCACGTGGAGTC,0.11
7,TTTTGCACGTGTCGTA,0.06
8,TTTGCCACGTGGGTTG,-0.18
9,AGTATCACGTGTAGAT,0.31
10,TTAGGCACGTGAGGAC,0.12
11,GAAGGCACGTGTGATA,0.06
12,TTCGGCACGTGGTTGT,-0.11
13,GTGCGCACGTGTGATG,-0.02
14,TTGTGCACGTGACGAT,-0.01
15,CTGGCCACGTGGAGGG,-0.21
16,TTCTTCACGTGGAGTT,0.38
17,AGCTGCACGTGGAAGG,0.08
18,TGGGCCACGTGTGGCG,0.05
19,TGGGCCACGTGTCTGT,-0.06
20,TGAGTCACGTGGTGCC,0.02
21,GTGACCACGTGGGGCT,-0.18
22,TAATGCACGTGAGTCT,0.15
23,TATATCACGTGCGTGG,0.02
24,GTAATCACGTGTTGCT,0.21
25,ATTGTCACGTGGAAAT,0.22
26,TTCAACACGTGAGGGT,0.24

row,Sequence,relative binding free energy [kcal/mol]
1,TTGGTCACGTGGCGTC,0.03
2,GAAGGCACGTGGGCTT,-0.24
3,TATTTCACGTGGTGTC,0.26
4,TGGTGCACGTGTTTAG,-0.03
5,ATGATCACGTGGTTCT,0.06
6,ATCGCCACGTGTGGTA,0.01
7,GTGGACACGTGTATGT,0.09
8,ATAGTCACGTGAGGGT,0.17
9,TTATACACGTGGCATT,0.07
10,CCTTTCACGTGGGGTG,0.09
11,TGCTCCACGTGGTTGG,-0.04
12,GGTTCCACGTGAGTAG,0.35
13,TAGTCCACGTGGATGA,0.11
14,AATGTCACGTGGGGCG,-0.07
15,TTATTCACGTGGAATT,0.45
16,CGTGTCACGTGGAGGG,0.07
17,CTCGGCACGTGAGTAG,0.14
18,TTTAACACGTGTGGAG,0.16
19,CCGGGCACGTGATAGG,0.05
20,TGGAGCACGTGTTAAT,0
21,GTTGGCACGTGCATTA,-0.07
22,GCCCGCACGTGGGGGT,-0.13
23,TTTGGCACGTGACTTA,-0.02
24,TTATTCACGTGGTGGA,0.23
25,AGTATCACGTGGGTTA,-0.05
26,GGGTGCACGTGGAATA,0.08

row,Sequence,relative binding free energy [kcal/mol]
1,ATGTTCACGTGGTTTG,0.28
2,TTAGCCACGTGTGTTT,-0.06
3,TATGCCACGTGGTGTT,-0.28
4,TATCGCACGTGTATAT,0.03
5,GCCAGCACGTGTGTGT,0.07
6,ACTTTCACGTGTAAGT,0.2
7,TGGTTCACGTGAGTAG,0.41
8,GTATCCACGTGGTGAG,0.06
9,TGCAGCACGTGGAGTG,-0.01
10,TACGGCACGTGCAGTG,0.03
11,TTTAACACGTGGAATT,0.25
12,AATGTCACGTGCGTGA,-0.06
13,AATGACACGTGGATAG,0.11
14,TTCGACACGTGTGGGG,0.21
15,GGCAGCACGTGTTGTG,-0.03
16,AAGGGCACGTGAATAA,0.15
17,AATGACACGTGATGGT,-0.03
18,CGTGTCACGTGTCTTG,0.07
19,GGGTTCACGTGTTTAA,0.17
20,TCGGTCACGTGAGGGT,0.22
21,AAGGACACGTGGCATG,0.01
22,GCGTTCACGTGGGGTC,0.18
23,TTGGGCACGTGTTAAG,0.03
24,TTGTGCACGTGGGTCC,-0.21
25,ATTTGCACGTGAGCGT,0.14
26,TCGCTCACGTGGGTGT,-0.14

row,Sequence,relative binding free energy [kcal/mol]
1,GGTTGCACGTGGTGTT,-0.01
2,TTCGGCACGTGATGAG,-0.07
3,GTTGGCACGTGCTTCG,-0.11
4,TAGCGCACGTGGGTGG,-0.28
5,GCCGTCACGTGGGGGA,-0.09
6,GTGTTCACGTGACGCG,0.39
7,TGGATCACGTGTCGGA,0.22
8,TCTTGCACGTGTGGTG,0.05
9,GGGCGCACGTGGGTAT,-0.4
10,GCTGGCACGTGAGCGT,0.11
11,TAGGGCACGTGATACA,-0.01
12,AGATGCACGTGTTTGA,-0.07
13,ACACGCACGTGTGGGG,-0.19
14,TGGTGCACGTGCAATG,-0.01
15,CGTGGCACGTGAGAAT,0.03
16,TTGTTCACGTGGCTCG,0.24
17,TAAGTCACGTGAGAGG,0.18
18,TTACTCACGTGTCTGG,0.18
19,GATGACACGTGGGATG,-0.12
20,TAAAACACGTGTTAGG,0.05
21,TTGGACACGTGATTAT,0.16
22,CTAGGCACGTGGTTAG,-0.24
23,AGATTCACGTGAGTTA,0.37
24,AATGTCACGTGGCATG,0.03
25,CGAGGCACGTGGGCAT,-0.17
26,ATGTCCACGTGGTTGC,0.1

row,Sequence,relative binding free energy [kcal/mol]
1,ATTATCACGTGTCTTT,0.15
2,TAAAGCACGTGGAGGA,-0.02
3,TGGGTCACGTGAAATG,0.16
4,TATATCACGTGTTACG,0.14
5,CGTTGCACGTGCGGGT,-0.13
6,TGGTTCACGTGGGAGC,0.23
7,TTGGTCACGTGCTTGC,0.09
8,AGATACACGTGGGTGG,-0.09
9,TTGCACACGTGAGGGG,0.31
10,CCGGTCACGTGGTGGA,-0.04
11,TTAGGCACGTGGGCAA,-0.29
12,GTAGCCACGTGGGTGA,-0.25
13,AGGAACACGTGAGGGG,0.24
14,CGAGTCACGTGTGGAG,0.08
15,TGTGTCACGTGAGGTC,0.36
16,GCGGTCACGTGTAAGG,0.23
17,TTTTACACGTGGAATG,0.21
18,TTTGTCACGTGATAGA,0.21
19,AGTGACACGTGGGAGA,-0.08
20,AGTTGCACGTGCGTTA,-0.1
21,TAGGTCACGTGCACGG,0
22,AGTAACACGTGTGTGC,-0.06
23,TTTCGCACGTGAGGGG,0.17
24,GGAGGCACGTGAGGTC,0.24
25,TCGGGCACGTGGGATT,-0.05
26,ATAGGCACGTGGAAGT,-0.13

row,Sequence,relative binding free energy [kcal/mol]
1,GCGTGCACGTGAAGGT,0.19
2,GTACACACGTGGGAGG,-0.06
3,TCGTGCACGTGAGGCG,0.04
4,GTCATCACGTGGGAGT,0.02
5,TCTTGCACGTGTAGGG,0.02
6,GCGTCCACGTGGGGGA,-0.08
7,TTCGTCACGTGTAGGT,0.08
8,GGCGTCACGTGTTTTC,0.22
9,GTTAACACGTGTGCGA,0.05
10,TGTGTCACGTGCACGG,-0.09
11,GTGATCACGTGTGATG,0.14
12,GTTTGCACGTGCTGGC,-0.04
13,CTTTTCACGTGTTTAC,0.22
14,GTAGGCACGTGGGGCT,-0.34
15,GTTGGCACGTGCATTG,0.02
16,TATGCCACGTGGGATT,-0.19
17,ATGGGCACGTGACAGT,-0.02
18,AATTCCACGTGTAGGG,0.16
19,ACGTTCACGTGGAGTT,0.17
20,TCTTTCACGTGCGTGG,0.36
21,TGTAACACGTGGAGGC,-0.03
22,TGTAGCACGTGATTCG,0.07
